Reference: PubChem BioAssay AID1030 (National Center for Advancing Translational Sciences (NCATS), 2008)
The whole screen tested about 220,000 compounds, of which about 16,000 (7.3%) were called active. Inconclusive results, whose numbers are uncertain, are shown with a selection of clear calls. Calls follow the shape of the dose curve; as a rule, active = well fitted inhibition curve with a large enough effect (not every such curve was filed as active); inconclusive = small, poorly fitted or top-dose-only effect, or another doubt; inactive = no such curve, though single readings can be large or run the other way. Potencies of inconclusive entries are doubtful fits and often do not repeat.

target: Aldehyde dehydrogenase 1A1 (Homo sapiens) (UniProt P00352); experiment: qHTS Assay for Inhibitors of Aldehyde Dehydrogenase 1 (ALDH1A1); details: Purified ALDH1A1, NADH fluorescence, propionaldehyde substrate; series mostly up to 75.3 µM; activity, negative = inhibition: at the top concentration;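 as to activity, negative = inhibition: plate controls were no enzyme wells and a reference inhibitor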
Potency is read from the fitted curve at half-maximal effect; tags tell the direction and shape of the fitted curve.

Chain of UniProt P00352 (P00352 whole entry, looked up): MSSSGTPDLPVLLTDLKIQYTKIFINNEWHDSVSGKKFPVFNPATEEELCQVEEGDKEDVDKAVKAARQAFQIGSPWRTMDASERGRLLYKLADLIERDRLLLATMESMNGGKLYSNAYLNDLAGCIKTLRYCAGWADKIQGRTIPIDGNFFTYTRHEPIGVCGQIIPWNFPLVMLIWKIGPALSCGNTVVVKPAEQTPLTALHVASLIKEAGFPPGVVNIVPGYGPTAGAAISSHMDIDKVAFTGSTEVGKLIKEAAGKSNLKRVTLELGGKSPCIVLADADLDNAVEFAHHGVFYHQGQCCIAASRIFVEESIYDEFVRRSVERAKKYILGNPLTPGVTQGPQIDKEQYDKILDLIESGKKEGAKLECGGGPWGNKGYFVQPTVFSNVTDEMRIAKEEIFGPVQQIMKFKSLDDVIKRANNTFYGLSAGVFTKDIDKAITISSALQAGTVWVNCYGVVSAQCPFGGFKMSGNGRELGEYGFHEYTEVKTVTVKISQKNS

Potency, inconclusive:
COC(=O)CCCC1=CC2=CC(=O)C(C)(OC(=O)c3cccs3)C(=O)C2=CN1c1ccc(OC)cc1 (configuration not stated) 3.55 µM [inhibitor, partial curve]
CC(=O)N1CCN(c2ccc(NC(=O)c3cccc(OCc4ccccc4)c3)cc2)CC1 39.8 µM [inhibitor, single point]
Cc1cc(C)c2c(n1)nn1c(-n3ccnc3)cc(C)nc21 35.5 µM [inhibitor, partial curve]
S=C(NCc1ccco1)N1CCOCC1 15.8 µM [inhibitor, single point]
CN(C)C(=O)COC(=O)/C=C/c1cn(-c2ccccc2)nc1-c1cccs1 25.1 µM [inhibitor, partial curve]
NCCSc1c(-c2ccccc2)[nH]c2ccccc12 39.8 µM [inhibitor, single point]
COc1ccc(/C=C/C(=O)NC(=S)Nc2ccc(S(=O)(=O)Nc3ccc(OC)nn3)cc2)cc1 31.6 µM [inhibitor, single point]
CS/C(=C/[N+](=O)[O-])Nc1cccc2c1C(C)CC2(C)C (configuration not stated) 39.8 µM [inhibitor, single point]
Cc1ccc(S(=O)(=O)N(Cc2n[nH]c(=S)n2-c2ccccc2)c2cccc(Cl)c2)cc1 31.6 µM [inhibitor, partial curve]
CN1C2C=C3C(C#N)=C(N)C(C#N)(C#N)[C@@H](c4cccc(F)c4)[C@@H]3C1CC2 (some centres not stated) 28.2 µM [inhibitor, single point]
c1ccc(CNc2cnccn2)cc1 28.2 µM [inhibitor, partial curve]
Cc1nn(Cc2ccccc2Cl)c2sc(C(=O)NCc3ccc4c(c3)OCO4)cc12 28.2 µM [inhibitor, partial curve]
Cc1ccc(C)c(CSc2nnc(-c3cccs3)n2Cc2ccco2)c1 39.8 µM [inhibitor, single point]
COc1cc(OC)cc(C(=O)NCCN2CCOCC2)c1 17.8 µM [inhibitor, single point]
Cc1ccc(-n2c(-c3ccncc3)n[nH]c2=S)cc1C 5.62 µM [inhibitor, single point]
CCn1cc2c(c1-c1cccc(C)c1)c(=O)n(C)c(=O)n2C 35.5 µM [inhibitor, single point]
O=C(NN=C1CCCC1)c1cc(-c2ccccc2)n[nH]1 23.8 µM [inhibitor, single point]
O=C(c1cn(-c2ccccc2)nc1-c1cccs1)N(CCO)Cc1ccccc1 1.58 µM [inhibitor, full curve]
COc1ccc(S(=O)(=O)Nc2ccccc2C(=O)NC(C)(C)C)cc1OC 31.6 µM [inhibitor, partial curve]
COc1cc2c(cc1NC(=S)Nc1ccccc1C)oc1ccccc12 22.4 µM [inhibitor, partial curve]
Cc1nccn1CCCNC(=O)CC1C(=O)NCCN1Cc1ccc(Cl)c(F)c1 (configuration not stated) 39.8 µM [inhibitor, partial curve, poor fit]
O=[N+]([O-])c1cccc(/C([O-])=C(/C(=S)Nc2ccccc2)[n+]2ccccc2)c1 14.1 µM [inhibitor, partial curve]
COc1cccc(-c2nc(CCl)cs2)c1OC 35.5 µM [inhibitor, single point]
O=c1c2ccccc2c(C=NCc2ccccn2)c(O)n1-c1ccccc1Cl 14.1 µM [inhibitor, partial curve]
COc1ccc(OC(C)C(=O)NCCC2=CCCCC2)cc1 (configuration not stated) 44.7 µM [inhibitor, single point]
Cc1ccc(S(=O)(=O)Nc2ccc3nc(-c4cccn4C)[nH]c3c2)cc1 14.1 µM [inhibitor, partial curve]
Cc1cc(C)n2nc(C(=O)OCCOc3ccc(F)cc3)nc2n1 28.2 µM [inhibitor, single point]
COc1ccccc1N1CCN(C(CNS(=O)(=O)c2cccs2)c2cccnc2)CC1 (configuration not stated) 39.8 µM [inhibitor, single point]
COC(=O)c1cc(NC(=O)CSc2nnc(N)s2)ccc1Cl 39.8 µM [inhibitor, single point]
CC(C)c1ccc(Nc2ncccc2C#N)cc1 39.8 µM [inhibitor, single point]
COc1ccc(S(=O)(=O)Cc2ccc(C(=O)N3CCCC3)o2)cc1 28.2 µM [inhibitor, partial curve]
O=C(NNC(=S)NCc1ccco1)c1ccc(S(=O)(=O)N2CCOCC2)cc1 39.8 µM [inhibitor, single point]
COc1cc(S(=O)(=O)N2CCOCC2)ccc1NC(=O)c1cc2c(s1)CCC2 28.2 µM [inhibitor, partial curve]
CCc1nnc(NC(=O)CSc2nnc3ncccn23)s1 39.8 µM [inhibitor, single point]
O=C(NCCOC(=O)c1cccs1)c1cccnc1 44.7 µM [inhibitor, single point]
CC(=O)Nc1sc(N/N=C\c2ccccc2)nc1-c1cccs1 25.1 µM [inhibitor, single point]
COCCCN1C(=O)C(=O)/C(=C(/O)c2ccc(C)cc2)C1/C=C/c1ccccc1 (configuration not stated) 39.8 µM [inhibitor, single point]
Cc1c(C=O)c2ccccn2c1C(=O)c1cccs1 35.5 µM [inhibitor, single point]
CCOC(=O)c1sc(NC(=O)c2ccccc2OCC)nc1C 6.31 µM [inhibitor, single point]
Cc1ccc(N2CCCn3c2cc(C)c(C#N)c3=O)cc1C 44.7 µM [inhibitor, single point]
CCOc1ncccc1C(=O)Nc1ncc(C)s1 25.1 µM [inhibitor, single point]
O=C(CCCCCN1C(=O)c2ccccc2C1=O)NC1CCCC1 39.8 µM [inhibitor, single point]
O=C(NNC(=S)NC(=O)c1cccs1)c1ccc(NC(=O)c2ccccc2)cc1 39.8 µM [inhibitor, single point]
COc1ccc(-c2ccc(S(=O)(=O)NCC3CCCO3)cc2)cc1 (configuration not stated) 20 µM [inhibitor, partial curve]
O=C(C[n+]1cc(-c2ccc(Cl)c(Cl)c2)n2c1CCC2)N1c2ccccc2Sc2ccccc21 31.6 µM [inhibitor, single point]
C/C=C/c1ccc(OCCCCN2CCN(CC)CC2)c(OC)c1 20 µM [inhibitor, single point]

Potency, active:
COC(=O)NC(/C(C(=O)OC)=C(\C)NCc1ccccc1)c1ccc2ccccc2c1 (configuration not stated) 3.55 µM
Cc1ccc(NC(=O)c2c(C(=O)Nc3ccccc3)sc3nc(C)cc(=O)n23)cc1 4.47 µM
O=C(Nc1ccc(O)c(C(=O)O)c1)c1ccc2c(c1)C(=O)N(CC1CCCO1)C2=O (configuration not stated) 10 µM
COC(=O)C1CSc2[nH]c(=O)sc2C1c1ccc(OC)c(OC)c1 (configuration not stated) 7.94 µM
COc1cccc(C2c3c(oc4cc(C)c(C)cc4c3=O)C(=O)N2CCCN(C)C)c1 (configuration not stated) 28.2 µM
COc1ccc(-c2nc3c(c4c2C[C@H](c2ccccc2)OC4)CN(S(=O)(=O)c2ccc(C#N)cc2)CC3)c(C)c1 0.501 µM
Nc1nnc(SCC(=O)c2ccc([N+](=O)[O-])cc2)s1 2.82 µM
Cc1cc(C)cc(NC(=S)Nc2cccc3cnccc23)c1 11.2 µM

activity, negative = inhibition, inactive:
CC1Cc2ccccc2N1CC(=O)NC(=O)NC1CCCC1 (configuration not stated) -8.36%
COc1cccc(C2CC(c3cccc(Br)c3)n3nc(N)nc3N2)c1 (configuration not stated) -4.08%
COc1ccc(C2CC(C(F)(F)F)n3nc(C(=O)N(C)Cc4cn(C)nc4C)c(Cl)c3N2)cc1 (configuration not stated) -1.32%
CN(C)C(=O)C1CCN(Cc2c[nH]c3ccccc23)CC1 14.3% [at 13.5 µM]
O=C(N/N=C/c1c[nH]c2ccccc12)c1ccn[nH]1 -6.17%
O=S(=O)(Nc1nccs1)c1ccc(F)cc1 -5.7%
O=C(Nc1ccccc1)C1CC=CCC1C(=O)OCC1CCCO1 (configuration not stated) -6.16%
O=C(CCCN1CCC(O)(c2cccc(C(F)(F)F)c2)CC1)c1ccc(F)cc1 -5.29%
[O-][n+]1onc2c1CCc1[nH]c(-c3ccccc3)nc1-2 16.4%
O=C(/C=C/c1cc2c(cc1Br)OCO2)NCc1ccc(F)cc1 1.99%
O=C(CCC(=O)N(CC(=O)NC1CCCC1)C1CCCCC1)Nc1ccccn1 5.84%
CCOC(=O)Nc1cccc(C(=O)O)c1 5.89%
O=C(O)Cn1cc(/C=C/[N+](=O)[O-])c2ccccc21 -10.8%
CCOC(=O)c1[nH]c2ccccc2c1NC(=O)CN(C)C 8.02%
O=C(O)c1ncn(Cc2ccc(Br)cc2)c1C(=O)O -7.26%
CCOC(=O)C1=NN(c2ccc(OC)cc2)C(c2ccccc2)CC1=O (configuration not stated) 3.64%
COc1cc2c(cc1NC(=O)CSc1nc3cc(Cl)ccc3s1)oc1ccccc12 -5.5%
COc1ccc(CC(=O)N2CCCC(C)C2)cc1 (configuration not stated) -9.42%
